Assay results from the supplement of paper PMC11880418.
Structures can show the parent of a compound that is named as a salt. This is one part of the list. The data scatter; read single values as rough.
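Also: High-content imaging of ALDEFLUOR-stained cells with Hoechst-labelled nuclei in 384-well plates, triplicate wells, scored as Z-score against 0.1% DMSO vehicle, negative meaning fewer ALDHbr cells.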

The molecules below were run on PANC1 (assay: ALDHbr (CSC) cell proportion score relative to DMSO vehicle (ratio to DMSO); breast (SUM159) / gastric (MKN45) / pancreatic (PANC1) / colon cancer lines; ALDHbr cells have high ALDH activity and are rich in cancer stem cells (CSC); higher = more CSC (ALDHbr) cells remaining). Conditions: 10 µM; 72 h.
With `N#Cc1cc(NC(=O)C(=O)O)c(Cl)c(NC(=O)C(=O)O)c1` [Lodoxamide] the ALDHbr was 0.987.
Work on `CCOc1cc(CC(=O)N[C@@H](CC(C)C)c2ccccc2N2CCCCC2)ccc1C(=O)O` [Repaglinide] yielded an ALDHbr of 0.879.
`Nc1nc(NC2CC2)c2ncn([C@H]3C=C[C@@H](CO)C3)c2n1` [Abacavir Sulfate] showed an ALDHbr of 0.908.
`O=C(NCC1CCCCN1)c1cc(OCC(F)(F)F)ccc1OCC(F)(F)F` (centres undefined) [Flecainide acetate] showed an ALDHbr of 0.801.
Molecule `OCc1cc(C(O)CNCCCCCCOCCCCc2ccccc2)ccc1O` (centres undefined) [Salmeterol] has an ALDHbr of 1.05.
With `c1ccc(CNc2ncnc3nc[nH]c23)cc1` [Aminopurine, 6-benzyl] the ALDHbr was 0.743.
Molecule `Cc1cc(C(C)(C)C)cc(C)c1CC1=NCCN1` [Xylometazoline hydrochloride] has an ALDHbr of 0.882.
Work on `C[C@H](O)C(=O)Nc1c(I)c(C(=O)NC(CO)CO)c(I)c(C(=O)NC(CO)CO)c1I` [Iopamidol] yielded an ALDHbr of 1.06.
Work on `CC(=O)CC(c1ccc([N+](=O)[O-])cc1)c1c(O)c2ccccc2oc1=O` (centres undefined) [Acenocoumarol] yielded an ALDHbr of 0.9.
For `Cc1c(Cl)cccc1Nc1ncccc1C(=O)O` [Clonixin Lysinate], the ALDHbr was 0.969.
`COc1ccc(CN2CCN(C(c3ccc(F)cc3)c3ccc(F)cc3)CC2)c(OC)c1OC` [Lomerizine hydrochloride] showed an ALDHbr of 0.949.
In the case of `CNCCC=C1c2ccccc2C=Cc2ccccc21` [Norcyclobenzaprine], the ALDHbr was 0.953.
Work on `CC[C@H]1OC(=O)C[C@@H](O)[C@H](C)[C@@H](O[C@@H]2O[C@H](C)[C@@H](O[C@H]3C[C@@](C)(O)[C@@H](O)[C@H](C)O3)[C@H](N(C)C)[C@H]2O)[C@@H](CC=O)C[C@@H](C)C(=O)/C=C/C(C)=C/[C@@H]1CO[C@@H]1O[C@H](C)[C@@H](O)[C@@H](OC)[C@H]1OC` [Tylosin] yielded an ALDHbr of 0.307.
With `CC1=C(/C=C/C(C)=C/C=C/C(C)=C\C(=O)O)C(C)(C)CCC1` [Isotretinoin] the ALDHbr was 1.78.
`CC(C)(C)NC[C@H](O)c1ccc(O)c(CO)c1` [Levalbuterol hydrochloride] showed an ALDHbr of 0.875.
With `CCC[C@@H]1C[C@@H](C(=O)N[C@@H]([C@H]2O[C@H](SC)[C@H](O)[C@@H](O)[C@H]2O)[C@H](C)Cl)N(C)C1` [Clindamycin hydrochloride] the ALDHbr was 0.489.
Molecule `C[N+]1(C)CCC(=C(c2ccccc2)c2ccccc2)CC1` [Diphemanil methylsulfate] has an ALDHbr of 0.923.
In the case of `CC(=O)OC(C)C[N+](C)(C)C` (centres undefined) [Methacholine chloride], the ALDHbr was 0.95.
Molecule `C[n+]1ccccc1/C=N/O` [Pralidoxime chloride] has an ALDHbr of 0.91.
With `CCC(=O)OCC(=O)[C@@]1(OC(=O)CC)[C@@H](C)C[C@H]2[C@@H]3CCC4=CC(=O)C=C[C@]4(C)[C@@]3(Cl)[C@@H](O)C[C@@]21C` [Beclomethasone dipropionate] the ALDHbr was 0.632.
Work on `CN1CCc2c(c3ccccc3n2Cc2ccccc2)C1` [Mebhydroline 1,5-naphtalenedisulfonate] yielded an ALDHbr of 0.928.
In the case of `Oc1ccc(OCc2ccccc2)cc1` [Monobenzone], the ALDHbr was 0.959.
In the case of `NS(=O)(=O)c1cc(C2(O)NC(=O)c3ccccc32)ccc1Cl` (centres undefined) [Chlorthalidone], the ALDHbr was 0.947.
Work on `N=C(N)NCc1cccc(I)c1` [Iobenguane sulfate] yielded an ALDHbr of 1.04.
Work on `CC(=O)/N=c1/sc(S(N)(=O)=O)nn1C` [Methazolamide] yielded an ALDHbr of 1.04.
`C[C@]1(Cn2ccnn2)[C@H](C(=O)O)N2C(=O)C[C@H]2S1(=O)=O` [Tazobactam] was tested, and the ALDHbr was 0.923.
`COc1ccc(C(=O)c2ccccc2O)c(O)c1` [Dioxybenzone] showed an ALDHbr of 0.912.
`Cc1ncc([N+](=O)[O-])n1CC(O)CCl` (centres undefined) [Ornidazole] showed an ALDHbr of 0.829.
For `CCCCNc1ccc(C(=O)OCCOCCOCCOCCOCCOCCOCCOCCOCCOC)cc1` [Benzonatate], the ALDHbr was 0.751.
With `Clc1ccccc1CN1CCc2sccc2C1` [Ticlopidine hydrochloride] the ALDHbr was 0.887.
`CN1CCN(c2c(F)cc3c(=O)c(C(=O)O)cn(CCF)c3c2F)CC1` [Fleroxacin] was tested, and the ALDHbr was 0.949.
In the case of `C[C@@H](c1ncncc1F)[C@](O)(Cn1cncn1)c1ccc(F)cc1F` [Voriconazole], the ALDHbr was 0.891.
`CC(=O)O[C@H]1C[C@@H]2CC[C@@H]3[C@H](CC[C@@]4(C)[C@H]3C[C@H]([N+]3(C)CCCCC3)[C@@H]4OC(C)=O)[C@@]2(C)C[C@@H]1N1CCCCC1` [Vecuronium bromide] gave an ALDHbr of 0.931.
`C=CCSCC1Nc2cc(Cl)c(S(N)(=O)=O)cc2S(=O)(=O)N1` (centres undefined) [Althiazide] showed an ALDHbr of 0.696.
For `C=C1/C(=C\C=C2/CCC[C@]3(C)[C@@H]([C@H](C)/C=C/[C@@H](O)C4CC4)CC[C@@H]23)C[C@@H](O)C[C@@H]1O` [Calcipotriene], the ALDHbr was 1.03.
`CN1CCOC(c2ccccc2)c2ccccc2C1` (centres undefined) [Nefopam hydrochloride] was tested, and the ALDHbr was 1.02.
`Cc1c(N)c(=O)n(-c2ccccc2)n1C` [Ampyrone] gave an ALDHbr of 0.737.
In the case of `CC(C)(C)NC(=O)[C@H]1CC[C@H]2[C@@H]3CC[C@H]4NC(=O)C=C[C@]4(C)[C@H]3CC[C@]12C` [Finasteride], the ALDHbr was 0.737.
With `Cn1c(NCCN(CCO)CCCc2ccc([N+](=O)[O-])cc2)cc(=O)n(C)c1=O` [Nifekalant] the ALDHbr was 0.839.
